# Data reported in paper PMC7819943, “Rice protein-binding microarrays: a tool to detect cis-acting elements near promoter regions in rice”.
# The other results are listed elsewhere or left out.
# Target: T1, OsWOX13 (Oryza sativa, UniProt Q5QMM3 1-267)
# T1 sequence: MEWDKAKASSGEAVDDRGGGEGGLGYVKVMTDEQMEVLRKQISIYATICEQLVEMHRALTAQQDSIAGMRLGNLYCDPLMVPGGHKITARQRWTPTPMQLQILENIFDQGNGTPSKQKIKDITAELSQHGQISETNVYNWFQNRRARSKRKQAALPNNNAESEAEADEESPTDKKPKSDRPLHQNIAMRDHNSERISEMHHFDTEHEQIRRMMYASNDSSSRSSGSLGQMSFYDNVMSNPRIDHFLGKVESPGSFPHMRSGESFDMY
# Assay: protein-binding microarray (RPBM); PBS, 2% BSA, 51.3 ng/ul salmon testes DNA, 50 uM zinc acetate, 200 nM TF, 25 C, 1 h; high values mean tight binding
# Settings: protein: recombinant; tags: N-terminal polyhistidine and DsRed monomer fusion (pET32a); label: CyDye5-dUTP incorporated in the synthesized complementary strand; 3' TTTTT single-stranded linker to array surface; dsDNA, one strand shown
# Method in brief: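 The binding signal is fluorescence intensity per feature, in arbitrary units, read on an Axon 4000B scanner. Polyhistidine- and DsRed-tagged transcription factors (N-terminal fusions) from E. coli BL21-CodonPlus were purified on Ni–NTA and applied at 200 nM for 1 h at 25 °C to a double-stranded, BSA-blocked custom Agilent array in buffer with 50 µM zinc acetate.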
row,Sequence,binding signal
1,CTCAACTAATTACAACCTTCTTCAATTTAATTTCATCTTCCGGAGTCACCTAGTGCAG,20500 fluorescence intensity (a.u.)
2,ACTGGTATCGATTAACAGGTTAATTTGGAGCGTCACGGGCCGGAGTCACCTAGTGCAG,7140 ± 617 fluorescence intensity (a.u.)
3,ACTATAATGACACAATTTTCTAGCTAACTTTAAAACTGTGCGGAGTCACCTAGTGCAG,6790 fluorescence intensity (a.u.)
4,TGTTAAGTTAAACGTGATTTGTTTGTATGGACCTAATTTACGGAGTCACCTAGTGCAG,4580 fluorescence intensity (a.u.)
5,TGTCATACTGATTTGGATGTTATTTGCAGAATCTACGCAGCGGAGTCACCTAGTGCAG,9470 fluorescence intensity (a.u.)
6,GGCTTGATGGATGGTCATCTTTCAATGCCACTAGTGAAGACGGAGTCACCTAGTGCAG,20700 fluorescence intensity (a.u.)
7,TAGTAAATTGCAGTTTGAAACCATAAATACAATGAAGTATCGGAGTCACCTAGTGCAG,7120 fluorescence intensity (a.u.)
8,AAAATGGATTTAATAGAAAGAAATGTTCACACATATCACGCGGAGTCACCTAGTGCAG,5480 fluorescence intensity (a.u.)
9,CTTAATTAATATAATGTCACATAAGCTAAAATTCCTACATCGGAGTCACCTAGTGCAG,32900 fluorescence intensity (a.u.)
10,CCACTGCTAGACTGCTAATTAACCAGTCCGCTCCAAGCGTCGGAGTCACCTAGTGCAG,17400 fluorescence intensity (a.u.)
11,TAGATAGATAGATAGATAGATAGATAGATAGATAGATACCCGGAGTCACCTAGTGCAG,33700 fluorescence intensity (a.u.)
12,GTCGCCTCCTGATTGGTTGTCCCCTCTTCCTTTCACGCGACGGAGTCACCTAGTGCAG,25800 fluorescence intensity (a.u.)
13,CTTATAGATGTTTGGATTGATGTCAAAATTTAACAAAGTTCGGAGTCACCTAGTGCAG,5120 fluorescence intensity (a.u.)
14,CCGGTGATAGCCTTATCTTGATTTTGTGTTGGTGCTATCGCGGAGTCACCTAGTGCAG,6680 fluorescence intensity (a.u.)
15,TATGATTGTGAGCACATGTATTCTAGTTAGAGGTGAATTTCGGAGTCACCTAGTGCAG,14000 fluorescence intensity (a.u.)
16,GGGGATTATTTATACATTTGTCGATAAATTTCCTGCTCCCCGGAGTCACCTAGTGCAG,8640 fluorescence intensity (a.u.)
17,ACCACGTAAATCTAAATCATGCTTTACCTATAAATGCGAGCGGAGTCACCTAGTGCAG,3410 fluorescence intensity (a.u.)
18,ATCAGTCAATACTAACAATCAACCGTGACTAGTGACTCCACGGAGTCACCTAGTGCAG,7570 fluorescence intensity (a.u.)
19,GTGTGATTATAACTACACATCAGCTTGCTGGCCAGCCTCTCGGAGTCACCTAGTGCAG,18300 fluorescence intensity (a.u.)
20,TCAAGCTAGTGATCAATTTATTTTCATGAATAATAATGGCCGGAGTCACCTAGTGCAG,5030 fluorescence intensity (a.u.)
21,ACAAATTTGAACTTAGAGTGATTTTACTTTAACCAAAGTCCGGAGTCACCTAGTGCAG,16300 fluorescence intensity (a.u.)

row,Sequence,binding signal
1,CGCTTAATGACTTCACTTTGTCCTCGGATGATTTGCGTCCCGGAGTCACCTAGTGCAG,11700 fluorescence intensity (a.u.)
2,GTCCTTTCAGCAGAGATGATTGTCTGAAATCAAAATATTTCGGAGTCACCTAGTGCAG,4010 fluorescence intensity (a.u.)
3,TACTTTTGATTATCTAGAACTAATCACTCATACACGCGTCCGGAGTCACCTAGTGCAG,18600 fluorescence intensity (a.u.)
4,TCCTTAATTTATTCGAATACCATTTGAATAAATATTTGATCGGAGTCACCTAGTGCAG,26300 fluorescence intensity (a.u.)
5,CTAAATTACTTATTTGTAGATGAAAGAGGTGGTACTTTATCGGAGTCACCTAGTGCAG,14500 fluorescence intensity (a.u.)
6,AGCCCAGGACAAATTAATTATGTGGTATGCCTGCATGATCCGGAGTCACCTAGTGCAG,8080 fluorescence intensity (a.u.)
7,ACACTAAATGAATTCTAAAATACGACAAAGATCAAACAAGCGGAGTCACCTAGTGCAG,3600 fluorescence intensity (a.u.)
8,TGTATCATTGATTTAGAGTATTTTATTTTAATTTATATGTCGGAGTCACCTAGTGCAG,8960 fluorescence intensity (a.u.)
9,CTTGGATAGATTCTTAATTAGCATACAGAAGCAGCAGTAGCGGAGTCACCTAGTGCAG,14000 fluorescence intensity (a.u.)
10,CAAATTTACCCTAGATTAGTTGCTTCATTGTATTGTCTATCGGAGTCACCTAGTGCAG,6870 fluorescence intensity (a.u.)
11,GTGGCTCTAAATTAAGTTTGTCTAGACTTATCCTGGTGTACGGAGTCACCTAGTGCAG,4780 fluorescence intensity (a.u.)
12,GGCTATTAGATTGGTTATAAATGAATTGGAGCCAATAGTGCGGAGTCACCTAGTGCAG,39100 fluorescence intensity (a.u.)
13,CGCTTGATCTGGGGTGGGGTCGCGAGTGGTGGAGGAGGTGCGGAGTCACCTAGTGCAG,3600 fluorescence intensity (a.u.)
14,TATTTAATTAACTATGTACTATTTTATCGTTCAATTTTACCGGAGTCACCTAGTGCAG,16500 fluorescence intensity (a.u.)
15,CCTAATGAATGGAAGTTGGTCTTGGTCTTCTTCAGGGCAACGGAGTCACCTAGTGCAG,5070 fluorescence intensity (a.u.)
16,CTGATTTCTGTGACATATGATAAATTGAACGTAGATGGATCGGAGTCACCTAGTGCAG,31600 fluorescence intensity (a.u.)
17,ATAAATTTGAGTAAATTTAACATAAGTTTGATTAGGAAAACGGAGTCACCTAGTGCAG,9310 fluorescence intensity (a.u.)
18,AAAATTTTAATGTGATGGAAAAGTCGGAAGTTCGAAGAAACGGAGTCACCTAGTGCAG,10700 fluorescence intensity (a.u.)
19,ATGAATCAGTTTAAACAGTTAAGGGAGCATCTGTATCTAGCGGAGTCACCTAGTGCAG,3260 fluorescence intensity (a.u.)
20,TAAAGTTCTACTAGTAATTGATTCAATCGCCCCGTTAGTGCGGAGTCACCTAGTGCAG,7900 fluorescence intensity (a.u.)
21,GTGACATTTACGTTTAACTATTTATTACTCCCTCGGTCACCGGAGTCACCTAGTGCAG,3990 fluorescence intensity (a.u.)
